Experimental data reported in publication PMC4336329 (PLoS ONE, 2015).
The whole screen tested about 310,000 compounds, of which about 2,200 (0.71%) showed an effect of 50% or more. Effects have a minus sign here. Some of the results follow.

biological target: human ether-à-go-go-related gene (hERG) potassium channel (human, UniProt Q12809); assay: primary screen, population patch clamp on CHO cells stably expressing hERG
Sequence (Q12809 whole entry, looked up): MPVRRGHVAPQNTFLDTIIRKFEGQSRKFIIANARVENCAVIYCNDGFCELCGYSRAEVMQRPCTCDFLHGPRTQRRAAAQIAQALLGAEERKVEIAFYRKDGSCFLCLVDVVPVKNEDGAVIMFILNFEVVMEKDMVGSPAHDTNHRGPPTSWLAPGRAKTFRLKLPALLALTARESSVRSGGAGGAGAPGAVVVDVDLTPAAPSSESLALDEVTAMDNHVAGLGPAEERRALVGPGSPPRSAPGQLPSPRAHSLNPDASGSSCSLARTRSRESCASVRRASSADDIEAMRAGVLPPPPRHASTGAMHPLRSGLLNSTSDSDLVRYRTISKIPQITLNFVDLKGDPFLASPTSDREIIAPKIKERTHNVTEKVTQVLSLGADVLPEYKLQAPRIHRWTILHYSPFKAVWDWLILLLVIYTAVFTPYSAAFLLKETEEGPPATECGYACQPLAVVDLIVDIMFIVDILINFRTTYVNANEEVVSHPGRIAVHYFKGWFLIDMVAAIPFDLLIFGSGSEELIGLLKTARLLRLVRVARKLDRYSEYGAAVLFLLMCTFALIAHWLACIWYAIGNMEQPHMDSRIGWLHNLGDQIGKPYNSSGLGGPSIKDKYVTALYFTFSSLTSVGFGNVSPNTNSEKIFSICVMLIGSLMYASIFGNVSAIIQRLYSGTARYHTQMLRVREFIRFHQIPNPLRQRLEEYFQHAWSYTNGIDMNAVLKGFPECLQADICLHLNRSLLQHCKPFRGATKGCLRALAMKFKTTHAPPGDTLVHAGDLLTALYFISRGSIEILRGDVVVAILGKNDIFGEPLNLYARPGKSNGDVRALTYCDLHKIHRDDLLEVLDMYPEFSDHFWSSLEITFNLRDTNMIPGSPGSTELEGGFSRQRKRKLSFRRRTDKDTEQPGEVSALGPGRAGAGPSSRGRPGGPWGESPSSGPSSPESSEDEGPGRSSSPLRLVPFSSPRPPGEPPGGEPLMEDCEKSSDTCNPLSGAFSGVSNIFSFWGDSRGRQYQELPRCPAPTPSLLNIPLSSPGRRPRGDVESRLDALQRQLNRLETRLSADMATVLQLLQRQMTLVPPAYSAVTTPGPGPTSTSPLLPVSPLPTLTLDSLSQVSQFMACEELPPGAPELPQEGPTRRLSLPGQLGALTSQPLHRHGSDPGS

SMILES | hERG current change (%, negative = inhibition) at 1uM [%]
Cc1cccc(-c2nc(CSCC(=O)N3CCN(Cc4ccc5c(c4)OCO5)CC3)c(C)o2)c1 | 15
Cc1c(NC(=O)c2ccc(NC(=O)C3CC3)cc2)cccc1C(=O)O | 17.9
O=c1[nH]c(=O)n(CC2CCCO2)c(O)c1/C=C1\C=Nc2ccccc21 (stereo not shown) [22416389] | 7.72
O=C(N/N=C/C(Br)=C/c1ccccc1)C(O)c1ccccc1 (stereo not shown) | 12.8
CCN1CCN(CCCNC(=O)c2ccc3c(=O)n(CCc4ccccc4)c(=O)[nH]c3c2)CC1 | 9.9
Cc1cccc(C)c1NC(=O)CC(NCCc1ccccc1)C(=O)O (stereo not shown) | 2.63
COCCCNC(=O)COc1ccc(Br)cc1Cl | 9.49
CCOc1ccc(NC(=O)CCN2C(=O)C3CCCCC3C2=O)cc1OCC (stereo not shown) | 13.4
COc1cccc2cc(C(=O)NCCc3ccccc3)c(=O)oc12 | 21.2
O=C(CN1C(=O)C(c2ccc(F)cc2)=NC12CCCC2)Nc1ccc(F)cc1 | -4.81
CCN1C(=NCCc2c[nH]c3ccccc23)N[C@@H](c2ccccc2)[C@H](C(=O)OC)[C@H]1C | 8.43
COc1cccc(C2c3c(oc4ccc(F)cc4c3=O)C(=O)N2CCCN2CCOCC2)c1 (stereo not shown) | -1.49
COc1ccc(NC(=O)CCc2nc(-c3ccc(C)cc3)no2)c(OC)c1 | 7.12
CCC1(C)Cc2c(sc3nnn(CC(=O)Nc4ccccc4C)c(=O)c23)CO1 (stereo not shown) | 2.32
CCOc1ccccc1NC(=O)C1C2CCC3C(CCC21)C3(Cl)Cl (stereo not shown) | 11.8
CC(=O)NC12CC3CC(C1)CC(C(=O)N1CCN(S(=O)(=O)c4cccc(F)c4)CC1)(C3)C2 | 0.29
COc1ccc(C(=O)N2CCNC(=O)C2CC(=O)Nc2cccc(Cl)c2Cl)cc1 (stereo not shown) | 1.63
O=C(CN1C(=O)NC2(CCCC2)C1=O)Nc1ccccc1N1CCCC1 | 10.9
COCCCn1c(Cc2csc(Nc3ccc(F)cc3)n2)nnc1SCC(N)=O | -1.42
COc1ccccc1N1C(=O)CC(Sc2nc(C)cc(C)n2)C1=O (stereo not shown) | 5.23
COCC(=O)Nc1nc(-c2ccc(C)cc2)c(C)s1 | 13.6
Nc1nc(SCc2ccccc2)[nH]c(=O)c1-c1ccccc1 | 6.71

SMILES | hERG current change (%, negative = inhibition) at 1uM [%]
O=[N+]([O-])c1cccc(-c2ccc(C(=S)N3CCOCC3)o2)c1 | 15.4
COc1ccc(-c2cc3ccccc3n2CC(O)Cn2nc(C)cc2C)cc1 (stereo not shown) | 9.43
COc1ccc(S(=O)(=O)N(C(C)=O)c2ccc(OC(C)=O)c3ccccc23)cc1[N+](=O)[O-] | 6.12
Cc1noc(C)c1COc1ccc(C(=O)N(C)CCOc2ccccc2)cc1 | 8.13
O=C(COc1ccc([N+](=O)[O-])cc1)Nc1ccccc1N1CCCC1 | -4.71
CCCOc1ccc(OCCn2nc(C(=O)O)c3ccccc3c2=O)cc1 | 3.06
COc1cccc(C2C(C(=O)c3ccco3)=C(O)C(=O)N2CCN(C)C)c1OC (stereo not shown) | 11.1
Cc1sc2ncnc(N3CCC(C(=O)NNC(=O)c4ccccc4Cl)CC3)c2c1C | 2.16
Cc1ccc(NC(=O)CSc2ccc3c(c2)OCCO3)nc1 | 13
COc1ccc(/C=N/NC(=O)c2ccc(NC(C)=O)cc2)cc1COc1ccc(F)cc1F | 14.2
O=C(c1cc([N+](=O)[O-])ccc1N1CCCC1)N1CCCC1 | -0.903
COC(=O)c1cc(S(=O)(=O)C(C)C)c(S(C)=O)s1 (stereo not shown) | 15.1
O=C(N/N=C/c1cccc([N+](=O)[O-])c1)c1ccc(CN2CCOCC2)cc1 | 7.54
O=C(NCCOc1ccc(F)cc1)C1CCC(=O)N(CCc2ccccn2)C1 (stereo not shown) | 5
O=C(Nc1ccccc1N1CCCC1)C1CCN(S(=O)(=O)c2ccccc2C(F)(F)F)CC1 | 2.51
COc1ccc(C(=O)COc2ccccc2C(=O)Nc2ccccc2)cc1 | 12.5
COc1ccc(OCC(=O)N/N=C2\CCCc3ccccc32)cc1 | 5.66
COc1ccccc1N1CCN(C(CNS(=O)(=O)c2cc(F)ccc2F)c2cccnc2)CC1 (stereo not shown) | -2.68
CCN1CCN(Cc2cccc(Oc3ccccc3)c2)CC1 | -12.6
O=S(=O)(Nc1nc2ccccc2nc1NCCO)c1cccc(Cl)c1 | 9.43
CCOc1ccc(N(CC(=O)NC2CCCCCC2)S(=O)(=O)c2c(C)[nH]c(=O)[nH]c2=O)cc1 | 13.4
